{"source": "PubChem BioAssay AID463173", "about": "(ICCB-Longwood Screening Facility, Harvard Medical School, 2010)", "note": "In all, about 52,000 compounds went through this assay and about 1,700 (3.3%) were called active. Rule as the data show it: active = survival mostly below about 52% (no sharp cut-off); inactive = mostly above about 56%. The list shows a part of the results.", "data": [{"tested_on": "Wild type", "assay": "S. aureus survival, RN4220 and DeltatarO strains – OD600, teichoic acid synthesis inhibitors, primary screen (AID 463173)", "conditions": "S. aureus RN4220 wild type/DeltatarO growth, OD600, 18 h, hits give low values, screened at 18.75 µg/mL (by protocol)", "values": [{"molecule": "Cc1cccc(Cn2c(=O)n(CCc3ccccc3)c(=O)c3sc4ccccc4c32)c1", "survival": "inactive: 81%"}, {"molecule": "Cc1ccc(CCNC(=O)CCSCc2ccccc2F)cc1", "survival": "active: -6%"}, {"molecule": "Cc1ccc(C2c3[nH]c4ccccc4c3CCN2C(=O)c2ccc(N(C)C)cc2)cc1", "note": "(stereo not given)", "survival": "inactive: 68%"}, {"molecule": "CCOC(=O)c1cc(-c2ccccc2)nn1Cc1ccccc1", "survival": "active: 2%"}, {"molecule": "O=C(CCOc1ccccc1)N(Cc1cccnc1)c1nc2c(Cl)cccc2s1", "survival": "inactive: 87%"}, {"molecule": "Cc1ccccc1-c1nnn(C/C(N)=N/O)n1", "survival": "inactive: 112%"}, {"molecule": "COc1ccc(C)cc1NC(=O)C(CCSC)NS(=O)(=O)c1ccc2c(c1)oc(=O)n2C", "note": "(stereo not given)", "survival": "inactive: 87%"}, {"molecule": "COc1cc(C)c(S(=O)(=O)N2CCCC(C)C2)cc1C", "note": "(stereo not given)", "survival": "inactive: 103%"}, {"molecule": "CCn1nnc2cc(C(=O)Nc3cccc(C(F)(F)F)c3)ccc21", "survival": "inactive: 80%"}, {"molecule": "CCOC(=O)N1CCc2c(sc3c2c(=O)n(Cc2ccccc2)c(=O)n3CC(=O)Nc2ccccc2F)C1", "survival": "inactive: 86%"}, {"molecule": "O=S(=O)(Nc1c(F)cccc1F)c1ccc2c(c1)OCCO2", "survival": "inactive: 73%"}, {"molecule": "Cc1ccc2oc(C(=O)Nc3c(C(=O)c4ccc(C)c(F)c4)oc4ccccc34)cc(=O)c2c1", "survival": "inactive: 88%"}, {"molecule": "Cc1cc(NC2C3CC4CC(C3)CC2C4)n2ncnc2n1", "note": "(stereo not given)", "survival": "inactive: 106%"}, {"molecule": "CCOC(=O)c1c(C)[nH]c(CCC(=O)Nc2ccc(N(CC)CC)cc2C)c1C", "survival": "inactive: 125%"}, {"molecule": "COc1ccc(CN(C(=O)Nc2ccccc2)c2ccccn2)cc1OC", "survival": "inactive: 93%"}, {"molecule": "CC(C)NC(=O)c1cnc2sc(N3CCCCCC3)nn2c1=O", "survival": "inactive: 74%"}, {"molecule": "Cc1ccc(S(=O)(=O)N(Cc2nc(-c3ccc(Cl)cc3)no2)C2CCCCC2)cc1", "survival": "inactive: 84%"}, {"molecule": "O=C(Cn1nnc2ccccc21)Nc1cc(C(F)(F)F)ccc1Cl", "survival": "inactive: 105%"}, {"molecule": "COc1ccccc1N1CCN(CCC(=O)Nc2cccc(F)c2)CC1", "survival": "inactive: 76%"}, {"molecule": "O=C(NCc1cccnc1)c1ccc(S(=O)(=O)N2CCCCC2)cc1", "survival": "inactive: 104%"}, {"molecule": "CCOCCCNC(=O)N1CCN(S(=O)(=O)c2ccc3c(ccn3C)c2)CC1", "survival": "inactive: 118%"}, {"molecule": "CN1CC=C2C(C#N)=C(N)C(C#N)(C#N)C(Cc3ccccc3)C2C1", "note": "(stereo not given)", "survival": "inactive: 98%"}, {"molecule": "COc1ccc(-c2noc(-c3ccc(N4CCOCC4)c([N+](=O)[O-])c3)n2)cc1OC", "survival": "inactive: 84%"}, {"molecule": "CCOC(=O)c1ccc(NS(=O)(=O)c2cc3c(cc2C)n(C)c(=O)c(=O)n3C)cc1", "survival": "inactive: 73%"}, {"molecule": "Cn1c(=O)c2c(SCC(=O)NCC3CCCO3)nc(-c3ccccc3F)nc2n(C)c1=O", "note": "(stereo not given)", "survival": "inactive: 80%"}, {"molecule": "COc1cccc(/C=C(\\C#N)c2nc3ccc(C)cc3[nH]2)c1", "survival": "inactive: 53%"}, {"molecule": "COc1ccc(CNc2nc(-c3ccc(OC)c(OC)c3)cc(C(F)(F)F)n2)cc1", "survival": "inactive: 27%"}, {"molecule": "CCCCSCCCNC(=O)CN1C(=O)COc2ccc(S(=O)(=O)N3CCCC3)cc21", "survival": "inactive: 77%"}, {"molecule": "CCOc1ccc(NC(=O)CSc2oc(-c3cccs3)nc2S(=O)(=O)c2ccc(Cl)cc2)cc1", "survival": "inactive: 79%"}, {"molecule": "O=C(Cn1c(=O)n(-c2ccccc2)c(=O)c2ccc(C(=O)NCc3ccc4c(c3)OCO4)cc21)Nc1ccc(Br)cc1F", "survival": "inactive: 130%"}, {"molecule": "O=C(Cn1nc(C(F)F)cc1C1CC1)N1CCCC1", "survival": "inactive: 110%"}, {"molecule": "COc1ccc(NC(=O)Cn2c(=O)n(-c3ccccc3)c(=O)c3ccc(C(=O)NCc4ccc5c(c4)OCO5)cc32)cc1", "survival": "inactive: 154%"}, {"molecule": "Cc1cc(NC(=O)c2ccc(Cl)c(Cl)c2)ccc1-c1cc2ccccc2oc1=O", "survival": "inactive: 78%"}, {"molecule": "Cc1ccc(CNC(=O)CSc2nc3ccsc3c(=O)n2-c2ccc(C(=O)O)cc2)cc1", "survival": "inactive: 76%"}, {"molecule": "CCN(CCCNC(=O)c1cc2cc3cc(OC)ccc3nc2s1)c1ccccc1", "survival": "inactive: 83%"}, {"molecule": "Oc1cccc(Nc2nc(-c3ccccc3)nc3ccccc23)c1", "survival": "inactive: 19%"}, {"molecule": "CC1(C)C(=O)N(CC(=O)Nc2ccc(OC(F)(F)F)cc2)c2ccccc21", "survival": "inactive: 100%"}, {"molecule": "CCCSc1ncc(Cl)c(C(=O)Nc2ccc(CC)cc2)n1", "survival": "inactive: 86%"}, {"molecule": "O=C(CSC1=Nc2ccccc2C2=NC(CCC(=O)NC3CCCCC3)C(=O)N12)Nc1cccc(Cl)c1", "note": "(stereo not given)", "survival": "inactive: 84%"}, {"molecule": "CCOC(=O)c1c(C)[nH]c(C)c1S(=O)(=O)N(C)CC(=O)Nc1cc(Cl)ccc1OC", "survival": "inactive: 128%"}, {"molecule": "CCOC(=O)C1CCC(CN(Cc2c(Cl)cccc2Cl)S(=O)(=O)c2ccc(F)c(C)c2)CC1", "note": "(stereo not given)", "survival": "inactive: 70%"}, {"molecule": "Cc1cccc(NC(=O)c2ccc(F)c(S(=O)(=O)N(C)C3CCCCC3)c2)c1", "survival": "inactive: 57%"}, {"molecule": "CCOc1ccc(C(=O)N2CCN(Cc3cc(=O)n4nc(-c5cccc(OC)c5)sc4n3)CC2)cc1", "survival": "inactive: 73%"}, {"molecule": "O=C(COc1ccc(Br)cc1)N1CCOCC1", "survival": "inactive: 99%"}, {"molecule": "COc1ccc(NC(=O)C(C)n2nc(C)c3c(C)n(-c4ccccc4)nc3c2=O)cc1Cl", "note": "(stereo not given)", "survival": "inactive: 79%"}, {"molecule": "CCOCCCNC(=O)C(c1ccc(Cl)cc1)N(Cc1ccc2c(c1)OCO2)C(=O)c1ccccc1O", "note": "(stereo not given)", "survival": "inactive: 78%"}, {"molecule": "CC(=O)Nc1ccc(Nc2nc3ccc(C)cc3n3nnnc23)cc1", "survival": "inactive: 73%"}, {"molecule": "COc1cc(C=Nc2ccc3[nH]c(=O)[nH]c3c2)ccc1OC(C)=O", "survival": "inactive: 103%"}, {"molecule": "Cc1ccc(C)c(OCCCn2c(-c3ccc(Cl)cc3)nc3ccccc3c2=O)c1", "survival": "inactive: 76%"}, {"molecule": "COc1ccc(-c2nc(S(=O)(=O)c3ccccc3)c(N3CCCCC3)o2)cc1", "survival": "inactive: 76%"}, {"molecule": "CCN(Cc1nc(-c2ccc(OC)cc2)oc1C)S(=O)(=O)c1ccc(Cl)cc1", "survival": "inactive: 74%"}, {"molecule": "COc1ccc(N2CCN(C(=O)c3cccn4c(=O)c5ccc(Cl)cc5nc34)CC2)cc1", "survival": "inactive: 132%"}, {"molecule": "CCN1C(=O)c2ccccc2Sc2ccc(NC(=O)Nc3ccc(C(C)=O)cc3)cc21", "survival": "inactive: 67%"}, {"molecule": "Cc1ccc2oc(=O)c3cnn(CC(=O)Nc4ccc(Br)cc4C)c3c2c1", "survival": "inactive: 86%"}, {"molecule": "Cc1ccccc1CNCCCSc1nnnn1-c1ccccc1", "survival": "inactive: 87%"}, {"molecule": "Cc1ccc(S(=O)(=O)NCCN2C(=N)N(c3nc(N(C)C)nc(N(C)C)n3)CC2=O)cc1", "survival": "inactive: 102%"}, {"molecule": "CCc1cccc(C)c1NC(=O)COCc1cc(-c2ccc3c(c2)OCO3)on1", "survival": "inactive: 95%"}, {"molecule": "CC1CCCCN1C(=O)CSc1nc2ccccc2nc1Cc1ccc(Cl)cc1", "note": "(stereo not given)", "survival": "inactive: 85%"}, {"molecule": "O=C(c1ccco1)N(Cc1cccnc1)c1nc2c(F)cccc2s1", "survival": "inactive: 112%"}, {"molecule": "CCc1ccccc1NC(=O)C(=O)c1cc(C)n(-c2ccccc2F)c1C", "survival": "inactive: 91%"}, {"molecule": "Cc1cc(C)c(Cn2c(C)c(CNCc3ccccc3C)c(C(=O)O)c2C)c(C)c1", "survival": "inactive: 95%"}, {"molecule": "Cc1ccc(NCc2nc3ccccc3n2CCOc2ccccc2C)cc1", "survival": "active: -20%"}, {"molecule": "Nc1c(C(=O)Nc2ccccc2Cl)nnn1Cc1cccc(Cl)c1", "survival": "inactive: 96%"}, {"molecule": "COc1cc(OC)cc(-c2nc3nc(C)c(CCC(=O)Nc4ccc(C)cc4)c(C)n3n2)c1", "survival": "inactive: 88%"}, {"molecule": "Cc1cc2c(cc1S(=O)(=O)CCC(=O)Nc1ccc(OC(F)(F)F)cc1)OCC(=O)N2", "survival": "inactive: 81%"}, {"molecule": "COc1ccc(NC(=O)Nc2cccc(C)n2)c(OC)c1", "survival": "inactive: 72%"}, {"molecule": "Cc1c2cnn(CC(=O)O)c(=O)c2c(C)n1Cc1cccc(Cl)c1", "survival": "inactive: 80%"}, {"molecule": "O=C(CC1N=C2c3ccccc3N=C(SCc3ccc(Cl)cc3)N2C1=O)NC1CCCCC1", "note": "(stereo not given)", "survival": "inactive: 68%"}, {"molecule": "CCNc1nc2c(c(=O)n(C)c(=O)n2C)n1CC(O)COc1ccccc1", "note": "(stereo not given)", "survival": "inactive: 72%"}, {"molecule": "Cc1c(CCNS(=O)(=O)c2ccccc2)sc2nc(-c3ccc(Cl)cc3)nn12", "survival": "active: 1%"}, {"molecule": "Cc1ccc(-c2cnc(NCc3ccc(C(C)C)cc3)n2C)cc1", "survival": "active: -13%"}, {"molecule": "O=C(NCc1cccc(Br)c1)c1ccc(-n2cnc3cccnc32)cc1", "survival": "inactive: 140%"}, {"molecule": "Cc1ccc(CNC(=O)COCc2cc(-c3ccc4c(c3)OCO4)on2)cc1", "survival": "inactive: 78%"}, {"molecule": "CCOc1ccc(S(=O)(=O)c2cn(Cc3ccc(C)cc3)c3ccc(OC)cc3c2=O)cc1", "survival": "inactive: 127%"}, {"molecule": "CCOc1ccc2cc(-c3nnc(Nc4ccccc4F)s3)c(=O)oc2c1", "survival": "inactive: 72%"}, {"molecule": "COc1ccc(C(C(=O)NCc2ccccc2)N(C(=O)Cn2nnc3ccccc32)c2ccc(F)cc2)cc1", "note": "(stereo not given)", "survival": "inactive: 88%"}, {"molecule": "Cc1cccc(-c2noc(CNC(=O)c3ccc(C)cc3C)n2)c1", "survival": "inactive: 89%"}, {"molecule": "Cc1ccc(-n2ncc3c(N4CCC(C)CC4)ncnc32)cc1C", "survival": "inactive: 71%"}, {"molecule": "COc1ccc(-c2c[n+](=O)c3c(n2[O-])CCC3)cc1", "survival": "inactive: 103%"}, {"molecule": "Cc1ccc(Cl)cc1N1CCN(C(=O)c2cn(C)c3ccc(S(=O)(=O)N4CCC(C)CC4)cc3c2=O)CC1", "survival": "inactive: 90%"}, {"molecule": "COc1ccc(NCc2nc3ccccc3n2CCOc2ccc(C)cc2)cc1", "survival": "active: -18%"}, {"molecule": "O=C(NCC(c1ccc(Cl)cc1)N1CCCCC1)c1ccccc1", "note": "(stereo not given)", "survival": "inactive: 85%"}, {"molecule": "Cc1cccc(NC(=O)C2CCCN(c3nnc(-n4c(C)ccc4C)s3)C2)c1C", "note": "(stereo not given)", "survival": "inactive: 76%"}, {"molecule": "CCOc1cccc(C2c3[nH]c4ccccc4c3CCN2C(=O)CCc2ccccc2)c1", "note": "(stereo not given)", "survival": "inactive: 76%"}, {"molecule": "CCOC(=O)c1nc(Nc2ccccc2C)c2ccccc2n1", "survival": "inactive: 77%"}, {"molecule": "O=C(Nc1nc2ccc(Cl)cc2s1)c1ccc(S(=O)(=O)N2CCCC2)cc1", "survival": "inactive: 121%"}, {"molecule": "CCN(CC)c1ccc(C(=O)N2CCC(c3ccncc3)CC2)cc1", "survival": "inactive: 85%"}, {"molecule": "CCN(CC)S(=O)(=O)c1ccc2nc(NC(=O)c3ccc(Br)o3)sc2c1", "survival": "inactive: 79%"}, {"molecule": "CCCC1(C(=O)OCC)NC(c2ccccc2F)C2C(=O)N(c3ccccc3)C(=O)C21", "note": "(stereo not given)", "survival": "inactive: 94%"}, {"molecule": "CCCN(C(=O)Cn1c(=O)oc2cc(Cl)ccc21)c1ccc(C(C)C)cc1", "survival": "active: 8%"}]}]}
